Measured values from PubChem BioAssay AID651820 (National Center for Advancing Translational Sciences (NCATS), 2012).
Among all 340,000 compounds or so, about 12,000 (3.5%) were called active. The shares of active, inactive and inconclusive entries below differ from those in the screen. Calls come from the whole dose curve; as a rule, active = well fitted inhibition curve with a large enough effect; inconclusive = small, poorly fitted or top-dose-only effect, or another doubt; inactive = no such curve, though single readings can be large or run the other way. Potencies of inconclusive entries are left out as doubtful fits.

assay: qHTS Assay for Inhibitors of Hepatitis C Virus (HCV); conditions: Huh7.5.1 HCVcc-Cre (HCVcc is cell-culture hepatitis C virus) infection, luciferase reporter, 44 h; series mostly up to 41.8 µM
Summary of the method: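 After 44 h co-culture of compound, cells and HCVcc-Cre (~0.5 moi), substrate is added for 15 min at room temperature and luciferase measured over 15 sec. Cells were seeded at 1,000/well and pre-cultured 4 h.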
Potency is the fitted concentration of half-maximal effect; tags give direction and shape of the fitted curve.

SMILES	Potency
COc1cc(OC)c(C(=O)/C=C/c2ccc(OCc3ccccc3)c(OC)c2)c(OC)c1	inconclusive [inhibitor, single point]
COc1ccc(CNC(=O)CCCn2nc(C)c3c(C)n(-c4ccc(C)cc4)nc3c2=O)cc1OC	inconclusive [inhibitor, partial curve]
CCOc1ccc(NC(=O)CN(C)C(=O)c2c(-c3ccccc3)noc2C)cc1OCC	inconclusive [inhibitor, full curve]
Cc1cc(C(=O)CN2C(=O)C(=O)N(Cc3ccccc3)C2=O)c(C)n1CC1COc2ccccc2O1 (configuration not stated)	active: 11.2 µM
O=C1c2ccccc2C(=O)N1CC1CCCO1 (configuration not stated)	inconclusive [inhibitor, single point]
O=C(N/N=C/c1ccccn1)c1[nH]c2ccc([N+](=O)[O-])cc2c1-c1ccccc1	inconclusive [inhibitor, single point]
COc1cc(OC)cc(C(=O)OCC(=O)Nc2sccc2C(N)=O)c1	inconclusive [inhibitor, single point]
COc1ccc(CCN2C(=O)c3cccc4cccc(c34)C2=O)cc1OC	inactive
COc1ccc(NCc2nnc(SCC(=O)c3ccc(C)cc3)o2)cc1	inconclusive [inhibitor, single point]
O=C(N/N=C/c1ccccn1)c1cccnc1	inactive
Cc1cc(/C=C2/NC(=O)N(Cc3ccccc3F)C2=O)c(C)n1C	inconclusive [inhibitor, partial curve]
O=C(CN1CCN(c2ccccc2F)CC1)NC(=O)NCc1ccco1	inactive
CCOC(=O)[C@]12Cc3cc4c(cc3[C@H]1N(Cc1ccccc1)C(=O)c1ccccc12)OCO4	inconclusive [inhibitor, single point]
COc1cccc2cc(CC(=O)c3ccccc3)c(=O)oc12	inactive
Cc1ccc(-c2cc(C(=O)Nc3ccccc3C)c3ccccc3n2)o1	inconclusive [inhibitor, partial curve]
OCCn1c(-c2ccc3c(c2)OCO3)csc1=Nc1ccccc1	inconclusive [inhibitor, single point]
CC(C)C(=O)NC(=S)NCC(=O)c1ccccc1	inactive
CCCN1CCN(C(=S)Nc2ccc3nc(N4CCN(CC)CC4)cc(C)c3c2)CC1	inconclusive [inhibitor, single point]
COc1ccc(S(=O)(=O)N(CCCN2CCOCC2)Cc2ccc(OC)c(OC)c2)cc1	inconclusive [inhibitor, single point]
CCOc1cc(/C=N/O)ccc1OCc1ccc([N+](=O)[O-])cc1	inconclusive [inhibitor, partial curve]
Cc1ccc(-c2cc(-c3ccccc3O)nc(N/N=C/c3cccnc3)n2)cc1	active: 0.562 µM
COc1cc(CN(C)CC(=O)c2[nH]c(C)c(C(C)=O)c2C)ccc1OC(F)F	inconclusive [inhibitor, single point]
Cc1ccccc1CN1[C@@H](CC2CCCCC2)COCCS1(=O)=O	inconclusive [inhibitor, single point]
CC(C)OC(=O)c1cc(NC(=O)C2C3C=CC(O3)C2C(=O)O)cc(C(=O)OC(C)C)c1 (configuration not stated)	inactive

SMILES	Potency
COc1ccccc1N1CCN(C(=O)c2cccs2)CC1	inactive
Cc1ccc(S(=O)(=O)CCC(=O)Nc2cc(Cl)ccc2-n2cncn2)cc1	inactive
CCC1(C)Cc2c(sc3c2c(=O)n(C)c2nnc(SCc4ccccc4)n32)CO1 (configuration not stated)	inconclusive [inhibitor, partial curve]
CCCCn1nnc(NC(=O)COc2cc(C)ccc2C(C)C)n1	inconclusive [inhibitor, single point]
CNCC/C=C1/c2ccccc2CSc2ccccc21	active: 10 µM
CC(C)c1c(C(=O)N/N=C/c2ccc(Cl)cc2Cl)nnn1-c1nonc1N	inconclusive [inhibitor, partial curve, poor fit]
COc1ccc(/C(C)=N/Nc2ncc(Cl)cc2Cl)c(O)c1	inconclusive [inhibitor, partial curve]
O=c1/c(=C\c2ccc(O)cc2)sc2n1C(c1ccccc1)C(c1ccccc1)=NN=2 (configuration not stated)	inactive
COc1ccc(-c2nsc3c(SCc4ccccc4)ncnc23)cc1	inactive
COc1cc(O)c(C(CC(=O)N2CCN(c3ccccc3)CC2)c2ccc(N(C)C)cc2)c(OC)c1 (configuration not stated)	inconclusive [inhibitor, full curve, poor fit]
CCOC(=O)c1ccccc1NC(=O)N1CCn2c(C)ccc2C1CC (configuration not stated)	inconclusive [inhibitor, partial curve]
Cc1nc(CCNS(=O)(=O)c2cccnc2)cs1	inconclusive [inhibitor, single point]
CCCCCOc1ccc(Cn2ccnc2)cc1[N+](=O)[O-]	active: 11.2 µM
CC(C)Cn1c(=O)c(CCC(=O)Nc2ccc(N3CCOCC3)cc2)nc2cc(Cl)ccc21	inconclusive [inhibitor, single point]
CC(C)(C)OC(=O)N1CCC(NC(=O)c2[nH]cnc2C(=O)Nc2cccc(Cl)c2)CC1	inactive
Cc1ccc(N=C/C(C(=O)C(F)(F)F)=C(\O)c2ccco2)cc1Cl	inconclusive [inhibitor, single point]
C[C@H](CO)N1C[C@H](C)[C@@H](CN(C)S(=O)(=O)c2ccc(F)cc2)Oc2c(NS(=O)(=O)c3ccc(F)cc3)cccc2C1=O	inactive
CC1CCN(CC(=O)Nc2ccccc2-c2ccccc2)CC1	active: 35.5 µM
COc1cc(NC(=O)c2cc(-c3cccnc3)nc3ccc(Br)cc23)cc(OC)c1	inconclusive [inhibitor, full curve, poor fit]
O=C1C2CC=CCC2C(=O)N1c1ccc(N2CCN(c3ccccn3)CC2)c([N+](=O)[O-])c1 (configuration not stated)	inactive
CCc1cc(C)cc(OCCNC(=O)c2cncc(Br)c2)c1	active: 10 µM
CCOc1ccc(NC(=O)C2Cc3ccccc3CN2S(=O)(=O)CC)cc1 (configuration not stated)	inactive
O=C(NCCS(=O)(=O)N1CCN(c2ccc(F)cc2)CC1)C12CC3CC(CC(C3)C1)C2	inconclusive [inhibitor, single point]
O=C(NCC1CCCO1)c1cccc(F)c1 (configuration not stated)	inactive

SMILES	Potency
FC(F)(F)c1nnc(-c2ccccc2)nc1Sc1ccc(Cl)cc1	inconclusive [inhibitor, single point]
Cc1cc(Oc2ccc(Cl)cc2)nc(-c2ccccc2O)n1	inactive
CCN1C(=O)c2cccc3c(NC(=O)c4ccc(S(=O)(=O)N5CCOCC5)cc4)ccc1c23	inconclusive [inhibitor, single point]
Nc1nc(N)nc(-c2ccc(Cl)c(Cl)c2)n1	inconclusive [inhibitor, single point]
O=C(CNc1cccc(F)c1)Nc1cccc(S(=O)(=O)N2CCCCC2)c1	inconclusive [inhibitor, single point]
COCCn1c(SC(C)C(=O)Nc2ncc(Cl)cc2Cl)nc2ccccc21 (configuration not stated)	inconclusive [inhibitor, single point]
COc1ccc(-c2cc(C(F)(F)F)nc(-n3cc(Br)cn3)n2)cc1	inconclusive [inhibitor, single point]
COC(=O)C1C(c2ccccc2)C(C(=O)OCc2ccco2)C1c1ccccc1 (configuration not stated)	inconclusive [inhibitor, single point]
O=C(NCCn1cc(SCc2ccc(F)cc2)c2ccccc21)c1c(F)cccc1F	inconclusive [inhibitor, partial curve]
CC(C)c1nc(SCc2ccccn2)c2c(=O)n(C)c(=O)n(C)c2n1	inconclusive [inhibitor, full curve]
Nc1ccccc1Oc1c(F)c(F)c(Oc2ccccc2N)c(F)c1F	inconclusive [inhibitor, single point]
O=C(ONC1=NCCCCC1)c1ccc(Cl)cc1	active: 2.51 µM
COc1ccccc1C(=O)Nc1c(C(=O)N(CCN(C)C)Cc2ccco2)oc2ccccc12	inconclusive [inhibitor, single point]
CN(C)c1ccc(N=Cc2cccn2C)cc1	inconclusive [inhibitor, single point]
CC(=O)NC(CC(=O)NNC(=O)COc1c(C)cccc1C)c1ccccc1 (configuration not stated)	inactive
N#C/C(=C/Nc1ccccc1C(=O)O)C(N)=O	inactive
COc1ccc(Cl)cc1NC(=O)c1ccco1	active: 11.2 µM
Cc1c(/C=C/C(=O)c2ccc(O)cc2)cnn1C	inconclusive [inhibitor, single point]
CC1CC(=O)c2cnc(N)nc2C1 (configuration not stated)	inactive
O=C(/C=C/c1ccc(S(=O)(=O)N2CCOCC2)cc1)NCCc1ccc(C(F)(F)F)cc1	inconclusive [inhibitor, single point]
CCN1CCN(c2ccc(NC(=O)COc3ccccc3Cl)cc2)CC1	inactive
Cc1nc(NC(=O)CC(C)C)sc1-c1csc(Nc2ccc(Cl)cc2)n1	active: 7.08 µM
Cc1ccc(NC(=O)CN(C)C(=O)c2cc3c(s2)CCCCC3)cc1	inconclusive [inhibitor, single point]
COC(=O)c1ccc(COC(=O)c2ccc(SC)cc2OC)cc1	inactive
